# Source: PubChem BioAssay AID485294 (National Center for Advancing Translational Sciences (NCATS), 2010)
# Screen size: about 370,000 compounds; about 150 (0.041%) were called active. This list was built around the results that the source calls inconclusive (neither active nor inactive); the mix of calls is not that of the screen. Calls come from the whole dose curve; as a rule, active = well fitted inhibition curve with a large enough effect; inconclusive = small, poorly fitted or top-dose-only effect; inactive = flat fitted curve, though single readings scatter. No potency is given beside an inconclusive call; the fits are too rough.
# Target: Beta-lactamase (Escherichia coli (strain K12)) (UniProt P00811)
# Chain of UniProt P00811 (P00811 whole entry, looked up): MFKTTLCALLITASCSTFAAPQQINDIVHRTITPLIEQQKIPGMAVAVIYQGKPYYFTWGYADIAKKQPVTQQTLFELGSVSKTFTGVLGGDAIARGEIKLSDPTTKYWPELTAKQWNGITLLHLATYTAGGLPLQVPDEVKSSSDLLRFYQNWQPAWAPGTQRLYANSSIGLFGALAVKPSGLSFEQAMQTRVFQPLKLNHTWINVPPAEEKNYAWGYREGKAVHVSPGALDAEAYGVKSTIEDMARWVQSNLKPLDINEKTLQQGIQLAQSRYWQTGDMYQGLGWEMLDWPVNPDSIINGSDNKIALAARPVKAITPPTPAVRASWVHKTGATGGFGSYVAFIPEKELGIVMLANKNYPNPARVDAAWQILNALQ
# Experiment: qHTS Inhibitors of AmpC Beta-Lactamase (assay with detergent); note: nearly all actives have a fitted effect of over 25% in size;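 for activity change, negative = inhibition: 0% = no-compound wells and -100% = no-enzyme wells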
# Details: AmpC hydrolysis of nitrocefin, absorbance 480 nm, 0.01% Triton; activity change, negative = inhibition: at 114 µM (top of the series)
# Summary of the method: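 20 mM phosphate pH 7.0 + 0.01% (detergent screen) or 0.0001% Triton X-100; 5.3 nM AmpC reagent; cpd preinc 15 min RT; nitrocefin (800 uM stock) to start; A480 q20 s × 4 min; Activity was normalised to no-enzyme and no-compound control wells.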
# Potency is the fitted concentration of half-maximal effect; tags give direction and shape of the fitted curve.
SMILES,"activity change, negative = inhibition",Potency
COc1ccc(CNC(=O)COc2ccc(OC)cc2)cc1,inactive: 3.27%,
O=C1CNC(c2ccccc2Cl)c2cc(Br)ccc2N1 (centres undefined),,"inconclusive [inhibitor, full curve, poor fit]"
COC(=O)c1c(NC(=O)c2cc(=O)c3ccc(C)c(C)c3o2)sc2c1CCCC2,inactive: 16.4%,
O=C(Nc1cccnc1Cl)c1ccc2c(Cl)c3c(nc2c1)CCC3,inactive: -0.474%,
CC(=O)N1c2ccc(S(=O)(=O)N(C)Cc3ccco3)cc2CC1C (centres undefined),,"inconclusive [inhibitor, partial curve, poor fit]"
CCC(Sc1nc2ccccc2c2nc(CCc3c(C)n[nH]c3C)nn12)C(=O)Nc1ccc(F)cc1 (centres undefined),inactive: 3.94%,
COc1cc(C(=O)O)ccc1O,,"inconclusive [inhibitor, full curve, poor fit]"
CC(=O)Nc1ccc(NC2=CC(=O)c3ccccc3C2=O)cc1,inactive: 4.07%,
Clc1ccc(-n2nnnc2-c2cnc(-c3ccccn3)nc2-c2cccs2)cc1,,"inconclusive [inhibitor, full curve, poor fit]"
CCc1noc(C)c1C(=O)NCCc1c[nH]c2ccccc12,,"inconclusive [inhibitor, full curve, poor fit]"
CSc1ccc(CNC(=O)CCn2ccc3cc(S(=O)(=O)N4CCC(C)CC4)ccc32)cc1,,"inconclusive [inhibitor, single point]"
COc1ccc2c(c1)S(=O)(=O)c1ccccc1N2,inactive: 5.35%,
O=C(c1cccc([N+](=O)[O-])c1)N1CCN(c2ccc(N3CCOCC3)nn2)CC1,,"inconclusive [inhibitor, single point]"
Cc1cc2oc(C(=O)Nc3sc4c(c3C(=O)NCc3ccco3)CCC4)cc(=O)c2cc1C,inactive: -0.499%,
c1ccc(CNc2nc(-c3ccccc3)nc3ccccc23)cc1,inactive: -16.4%,
Cc1ccc(C(=O)Nc2nc(C(C)(C)C)cs2)s1,inactive: 0.393%,
Cc1ccccc1C(=O)c1cccn1CC(=O)NCC1CCCO1 (centres undefined),inactive: -5.96%,
Clc1c(-c2nnc3n2CCC3)sc2ccccc12,inactive: 0.517%,
S=C(NCCN1CCOCC1)Nc1ccccc1Cl,,"inconclusive [inhibitor, full curve, poor fit]"
Cc1ccccc1CNC(=O)C(=O)NCCC1CCCCN1S(=O)(=O)c1cccs1 (centres undefined),,"inconclusive [inhibitor, partial curve]"
CC1CCCN(C(=O)c2cc3c(=O)n4ccccc4nc3s2)C1 (centres undefined),inactive: -9.74%,
O=C(CS(=O)(=O)Cc1ccccc1)Nc1ccccc1Cl,,"inconclusive [inhibitor, single point]"
COc1ccc2oc(=O)c(-c3nc(-c4cc(OC)c(OC)c(OC)c4)no3)cc2c1,inactive: 20.5%,
O=C(OC1CCCCC1)c1ccc(NC(=O)C2CCCCC2)cc1,,"inconclusive [inhibitor, partial curve, poor fit]"
COC(=O)c1ccc(NC(=O)COc2ccc(C3C(C#N)=C(N)Oc4c3ccc3ccccc43)cc2OC)cc1 (centres undefined),,"inconclusive [inhibitor, full curve]"

SMILES,"activity change, negative = inhibition",Potency
CCOc1ncccc1C(=O)NNC(=O)c1csc(N2CCOCC2)n1,,"inconclusive [inhibitor, single point]"
OC(COc1ccc(Cl)cc1Cl)Cn1ccnc1 (centres undefined),,"inconclusive [inhibitor, full curve, poor fit]"
COc1cc(CNC(C)(C)CO)cc(Br)c1OCc1ccc(Cl)cc1Cl,inactive: -9.95%,
CNC(=S)N/N=C/c1cccc(OCc2ccccc2F)c1,inactive: -5.2%,
CCOc1ccc2ccccc2c1CNc1nnnn1CC,,"inconclusive [inhibitor, full curve, poor fit]"
Cc1ccc(O)c(NC(=O)CSc2n[nH]c(C)c2[N+](=O)[O-])c1,,"inconclusive [inhibitor, single point]"
COc1ccc(Nc2ncccc2C(=O)Nc2ccccc2)cc1,inactive: 14.3%,
COc1ccc(OCCCC(=O)Nc2ccc3c(c2)OCO3)cc1,,"inconclusive [inhibitor, full curve]"
COc1ccc(CC(=O)N(Cc2ccccc2)c2cccc(C)c2)cc1OC,inactive: -0.642%,
Cn1c(N)c(C(=O)COC(=O)c2ccc3c(c2)OCCO3)c(=O)n(C)c1=O,inactive: -7.62%,
O=C(CN(Cc1ccccc1)C(=O)CCl)c1cccc(Br)c1,,"inconclusive [inhibitor, full curve, poor fit]"
CCC1=Nc2cc(C(=O)O)ccc2Sc2ccccc21,,"inconclusive [inhibitor, partial curve, poor fit]"
O=C(CSc1nc(-c2ccccc2)c(-c2ccccc2)[nH]1)Nc1ccc2c(c1)OCO2,,"inconclusive [inhibitor, partial curve]"
CCCCNC(=O)NNc1nc(Cl)cc(C)c1C#N,inactive: -6.14%,
CCOC(=O)C1(CCOc2ccccc2)CCN(Cc2cc(OC)c3c(c2)OCO3)CC1,inactive: -0.709%,
O=C(Nc1cnn(Cc2ccc(Cl)cc2Cl)c1)c1cc(-c2cccs2)on1,inactive: -1.48%,
Cn1ncc(C#N)c1/N=C/N1CCOCC1,,"inconclusive [inhibitor, full curve, poor fit]"
CCN(CC)c1ccc(NC(=O)c2cnccn2)cc1S(=O)(=O)Nc1ccc(OC)cc1,,"inconclusive [inhibitor, partial curve, poor fit]"
Cn1c(SCC(=O)NCc2ccco2)nnc1-c1c[nH]c2ccccc12,,"inconclusive [inhibitor, partial curve, poor fit]"
O=C(CSc1nc2ccccc2c(=O)n1CCCN1CCOCC1)c1c[nH]c2ccccc12,,"inconclusive [inhibitor, single point]"
CCOC(=O)Nc1cc(Br)c2c(c1)OCCO2,inactive: -0.696%,
CCNc1nc(NCC)n2c(SCC(=O)Nc3ccc(CC)cc3)nnc2n1,,"inconclusive [inhibitor, single point]"
Cc1c(N/N=C(\C#N)C(=O)c2ccccc2)c(=O)n(-c2ccccc2)n1C,inactive: -12.9%,
COc1cc(OC)c(NS(=O)(=O)c2cc3c(cc2C)NC(=O)CO3)cc1Cl,inactive: 18%,
CCCNS(=O)(=O)c1ccc(CCC(=O)Nc2ccc3c(c2)OCCO3)cc1,,"inconclusive [inhibitor, full curve, poor fit]"

SMILES,"activity change, negative = inhibition",Potency
COc1ccc(CCNc2oc(COc3ccc(Br)cc3)nc2C#N)cc1OC,inactive: -16.7%,
O=C(NC1CCCCC1)C(c1ccccc1)N1CCc2ccccc21 (centres undefined),inactive: -12.9%,
Cc1n[nH]c(=O)nc1NCc1ccc(Cl)cc1,,"inconclusive [inhibitor, full curve, poor fit]"
Cn1nc(C(=O)OCC(=O)Nc2ccccc2[N+](=O)[O-])c2ccccc2c1=O,,"inconclusive [inhibitor, full curve, poor fit]"
COc1cc(OC)cc(-n2nnnc2SCC(=O)NCc2ccc3c(c2)OCO3)c1,,"inconclusive [inhibitor, full curve, poor fit]"
COc1ccc(C2C(C#N)=C(N)Oc3n[nH]c(C)c32)cc1Cn1nnc2ccccc21 (centres undefined),,"inconclusive [inhibitor, full curve]"
Cn1cnc2cc(NCc3ccccc3Cl)ccc21,,"inconclusive [inhibitor, partial curve]"
COc1ccc(NC(=O)CN(C)C(=O)c2cc3c(s2)CCC3)cc1,,"inconclusive [inhibitor, full curve, poor fit]"
Cc1ccc(N2C(=O)C(CC(=O)Nc3ccc(F)cc3)N(CCC3=CCCCC3)C2=O)cc1 (centres undefined),inactive: -0.957%,
C=CCn1c(SCC(=O)Nc2nncs2)nnc1-c1ccco1,,"inconclusive [inhibitor, partial curve, poor fit]"
COC(=O)c1sc(N)c(C(=O)OC)c1COC(=O)CNS(=O)(=O)c1ccc(C)c(C)c1,inactive: -0.172%,
CCOc1ccc(-c2cc(C(=O)NCC3CCCO3)c3ccccc3n2)cc1 (centres undefined),inactive: -0.256%,
O=C(COc1ccc(F)cc1)Nc1ccc2nc(SCC(=O)N3CCCC3)sc2c1,inactive: 3.16%,
CCCCNC(=O)c1ccc(Cn2c(=S)[nH]c3c([nH]c4ccc(OC)cc43)c2=O)cc1,,"inconclusive [inhibitor, full curve, poor fit]"
Cc1ccc(-c2onc(C)c2C)cc1S(=O)(=O)NCc1cccs1,inactive: -10.5%,
Cc1ccc(C(=O)CN2C(=O)NC3(CCCCCC3)C2=O)c(C)c1,,"inconclusive [inhibitor, partial curve, poor fit]"
COc1cccc(CN2CCCC(N3CCc4ccccc4C3)C2)c1O (centres undefined),inactive: 0.776%,
Brc1ccc(Cn2c(-c3ccc(Br)o3)nc3ccccc32)o1,,"inconclusive [inhibitor, full curve, poor fit]"
Cc1cc(C)n2nc(SCc3nc4ccccc4[nH]3)nc2n1,,"inconclusive [inhibitor, partial curve, poor fit]"
CC(C)Oc1ccc(C(=O)NCC(=O)Nc2ccc3c(c2)CCC3)cc1,,"inconclusive [inhibitor, partial curve, poor fit]"
C=CCn1c(SCC(=O)N2CCN(c3ccc(F)cc3)CC2)nnc1-c1cccs1,,"inconclusive [inhibitor, full curve]"
CCOc1ccc2nc(SCC(=O)NCc3ccc(OC)c(OC)c3)[nH]c2c1,,"inconclusive [inhibitor, partial curve, poor fit]"
CC(=O)OC1=CN(Cc2ccccc2)S(=O)(=O)c2ccccc21,inactive: 4%,
CC(C)(C)c1ccc(C(=O)NCC(=O)OCC(=O)Nc2ccc3c(c2)OCCO3)cc1,,"inconclusive [inhibitor, partial curve]"
